# Experimental data as given in the supplement of paper PMC8728848.
# This is one part of the list.
# B1: Siglec-9 (Homo sapiens), Q9Y336 (protein)
# chain: MLLLLLPLLWGRERAEGQTSKLLTMQSSVTVQEGLCVHVPCSFSYPSHGWIYPGPVVHGYWFREGANTDQDAPVATNNPARAVWEETRDRFHLLGDPHTKNCTLSIRDARRSDAGRYFFKMEKGSIKWNYKHHRLSVNVTALTHRPNILIPGTLESGCPQNLTCSVPWACEQGTPPMISWIGTSVSPLDPSTTRSSVLTLIPQPQDHGTSLTCQVTFPGASVTTNKTVHLNVSYPPQNLTMTVFQGDGTVSTVLGNGSSLSLPEGQSLRLVCAVDAVDSNPPARLSLSWRGLTLCPSQPSNPGVLELPWVHLRDAAEFTCRAQNPLGSQQVYLNVSLQSKATSGVTQGVVGGAGATALVFLSFCVIFVVVRSCRKKSARPAAGVGDTGIEDANAVRGSASQGPLTEPWAEDSPPDQPPPASARSSVGEGELQYASLSFQMVKPWDSRGQEATDTEYSEIKIHR
# Experiments:
# Assay in all cases: glycan array binding signal (z-score within array); higher = stronger binding
# Conditions in all cases: glycan notation: IUPAC condensed, linker removed; mutation: R120K
# [1] = target: Neu5Ac(a2-6)Gal
# How it was run: (§1)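 Negative Z-scores can be read as non-binding. The Z-score is calculated within each array and then averaged across arrays of one protein sequence at different concentrations or buffers and across linkers. Arrays, 3228 in all, were curated from the Consortium for Functional Glycomics database and kept only where the protein sequence was available.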
# [2] = target: Neu5Ac(a2-6)Gal(b1-3)GlcNAc(b1-3)[Gal(b1-4)GlcNAc(b1-6)]Gal(b1-4)Glc
# How it was run: as §1
# [3] = target: Neu5Ac(a2-6)Gal(b1-4)Glc
# How it was run: as §1
# [4] = target: Neu5Ac(a2-6)Gal(b1-4)GlcNAc
# How it was run: as §1
# [5] = target: Neu5Ac(a2-6)Gal(b1-4)GlcNAc(b1-2)Man
# How it was run: as §1
# [6] = target: Neu5Ac(a2-6)Gal(b1-4)GlcNAc(b1-2)Man(a1-3)Man(b1-4)GlcNAc(b1-4)GlcNAc
# How it was run: as §1
# [7] = target: Neu5Ac(a2-6)Gal(b1-4)GlcNAc(b1-2)Man(a1-3)[Gal(b1-4)GlcNAc(b1-2)Man(a1-6)]Man(b1-4)GlcNAc(b1-4)GlcNAc
# How it was run: as §1
# [8] = target: Neu5Ac(a2-6)Gal(b1-4)GlcNAc(b1-2)Man(a1-3)[GlcNAc(b1-2)Man(a1-6)]Man(b1-4)GlcNAc(b1-4)GlcNAc
# How it was run: as §1
# [9] = target: Neu5Ac(a2-6)Gal(b1-4)GlcNAc(b1-2)Man(a1-3)[GlcNAc(b1-4)][Neu5Ac(a2-6)Gal(b1-4)GlcNAc(b1-2)Man(a1-6)]Man(b1-4)GlcNAc(b1-4)GlcNAc
# How it was run: as §1
# [10] = target: Neu5Ac(a2-6)Gal(b1-4)GlcNAc(b1-2)Man(a1-3)[Man(a1-6)]Man(b1-4)GlcNAc(b1-4)GlcNAc
# How it was run: as §1
# [11] = target: Neu5Ac(a2-6)Gal(b1-4)GlcNAc(b1-2)Man(a1-3)[Neu5Ac(a2-3)Gal(b1-4)GlcNAc(b1-2)Man(a1-6)]Man(b1-4)GlcNAc(b1-4)GlcNAc
# How it was run: as §1
# [12] = target: Neu5Ac(a2-6)Gal(b1-4)GlcNAc(b1-2)Man(a1-3)[Neu5Ac(a2-6)Gal(b1-4)GlcNAc(b1-2)Man(a1-6)]Man(b1-4)GlcNAc(b1-4)GlcNAc
# How it was run: as §1
# [13] = target: Neu5Ac(a2-6)Gal(b1-4)GlcNAc(b1-2)Man(a1-3)[Neu5Ac(a2-6)Gal(b1-4)GlcNAc(b1-2)Man(a1-6)]Man(b1-4)GlcNAc(b1-4)[Fuc(a1-6)]GlcNAc
# How it was run: as §1
# [14] = target: Neu5Ac(a2-6)Gal(b1-4)GlcNAc(b1-2)Man(a1-6)Man(b1-4)GlcNAc(b1-4)GlcNAc
# How it was run: as §1
# [15] = target: Neu5Ac(a2-6)Gal(b1-4)GlcNAc(b1-2)Man(a1-6)[Gal(b1-4)GlcNAc(b1-2)Man(a1-3)]Man(b1-4)GlcNAc(b1-4)GlcNAc
# How it was run: as §1
# [16] = target: Neu5Ac(a2-6)Gal(b1-4)GlcNAc(b1-2)Man(a1-6)[GlcNAc(b1-2)Man(a1-3)]Man(b1-4)GlcNAc(b1-4)GlcNAc
# How it was run: as §1
# [17] = target: Neu5Ac(a2-6)Gal(b1-4)GlcNAc(b1-2)Man(a1-6)[Man(a1-3)]Man(b1-4)GlcNAc(b1-4)GlcNAc
# How it was run: as §1
# [18] = target: Neu5Ac(a2-6)Gal(b1-4)GlcNAc(b1-2)[Neu5Ac(a2-6)Gal(b1-4)GlcNAc(b1-4)]Man(a1-3)[GlcNAc(b1-4)][Neu5Ac(a2-6)Gal(b1-4)GlcNAc(b1-2)[Neu5Ac(a2-6)Gal(b1-4)GlcNAc(b1-6)]Man(a1-6)]Man(b1-4)GlcNAc(b1-4)GlcNAc
# How it was run: as §1
# [19] = target: Neu5Ac(a2-6)Gal(b1-4)GlcNAc(b1-2)[Neu5Ac(a2-6)Gal(b1-4)GlcNAc(b1-4)]Man(a1-3)[GlcNAc(b1-4)][Neu5Ac(a2-6)Gal(b1-4)GlcNAc(b1-4)Man(a1-6)]Man(b1-4)GlcNAc(b1-4)GlcNAc
# How it was run: as §1
# [20] = target: Neu5Ac(a2-6)Gal(b1-4)GlcNAc(b1-2)[Neu5Ac(a2-6)Gal(b1-4)GlcNAc(b1-6)]Man(a1-6)[Neu5Ac(a2-6)Gal(b1-4)GlcNAc(b1-2)Man(a1-3)][GlcNAc(b1-4)]Man(b1-4)GlcNAc(b1-4)GlcNAc
# How it was run: as §1
# [21] = target: Neu5Ac(a2-6)Gal(b1-4)GlcNAc(b1-3)Gal(b1-3)GlcNAc
# How it was run: as §1
# [22] = target: Neu5Ac(a2-6)Gal(b1-4)GlcNAc(b1-3)Gal(b1-4)GlcNAc
# How it was run: as §1
# [23] = target: Neu5Ac(a2-6)Gal(b1-4)GlcNAc(b1-3)Gal(b1-4)GlcNAc(b1-2)Man(a1-3)[Neu5Ac(a2-6)Gal(b1-4)GlcNAc(b1-3)Gal(b1-4)GlcNAc(b1-2)Man(a1-6)]GalNAc
# How it was run: as §1
# [24] = target: Neu5Ac(a2-6)Gal(b1-4)GlcNAc(b1-3)Gal(b1-4)GlcNAc(b1-3)Gal(b1-4)GlcNAc
# How it was run: as §1
# [25] = target: Neu5Ac(a2-6)Gal(b1-4)GlcNAc(b1-3)Gal(b1-4)GlcNAc(b1-3)Gal(b1-4)GlcNAc(b1-2)Man(a1-3)[Neu5Ac(a2-6)Gal(b1-4)GlcNAc(b1-3)Gal(b1-4)GlcNAc(b1-3)Gal(b1-4)GlcNAc(b1-2)Man(a1-6)]GalNAc
# How it was run: as §1
# [26] = target: Neu5Ac(a2-6)Gal(b1-4)GlcNAc(b1-3)Gal(b1-4)GlcNAc(b1-3)GalNAc
# How it was run: as §1
# [27] = target: Neu5Ac(a2-6)Gal(b1-4)GlcNAc(b1-3)Gal(b1-4)GlcNAc(b1-3)[Neu5Ac(a2-6)Gal(b1-4)GlcNAc(b1-3)Gal(b1-4)GlcNAc(b1-6)]GalNAc
# How it was run: as §1
# [28] = target: Neu5Ac(a2-6)Gal(b1-4)GlcNAc(b1-3)Gal(b1-4)GlcNAc(b1-6)[Gal(b1-3)]GalNAc
# How it was run: as §1
# [29] = target: Neu5Ac(a2-6)Gal(b1-4)GlcNAc(b1-3)Gal(b1-4)[Fuc(a1-3)]GlcNAc(b1-3)Gal(b1-4)[Fuc(a1-3)]GlcNAc
# How it was run: as §1
# [30] = target: Neu5Ac(a2-6)Gal(b1-4)GlcNAc(b1-3)GalNAc
# How it was run: as §1
# [31] = target: Neu5Ac(a2-6)Gal(b1-4)GlcNAc(b1-3)[Neu5Ac(a2-6)Gal(b1-4)GlcNAc(b1-6)]GalNAc
# How it was run: as §1
# [32] = target: Neu5Ac(a2-6)Gal(b1-4)GlcNAc(b1-6)GalNAc
# How it was run: as §1
# [33] = target: Neu5Ac(a2-6)Gal(b1-4)GlcNAc(b1-6)[Gal(b1-3)GlcNAc(b1-3)]Gal(b1-4)Glc
# How it was run: as §1
# [34] = target: Neu5Ac(a2-6)Gal(b1-4)GlcNAc(b1-6)[Gal(b1-3)]GalNAc
# How it was run: as §1
# [35] = target: Neu5Ac(a2-6)Gal(b1-4)GlcNAc6S
# How it was run: as §1
# [36] = target: Neu5Ac(a2-6)GalNAc
# How it was run: as §1
# [37] = target: Neu5Ac(a2-6)GalNAc(b1-4)GlcNAc
# How it was run: as §1
# [38] = target: Neu5Ac(a2-6)GalNAc(b1-4)GlcNAc6S
# How it was run: as §1
binder,measurement,setting,value
B1,glycan array binding signal (z-score),[1],-0.301
same,glycan array binding signal (z-score),[2],-0.34
same,glycan array binding signal (z-score),[3],-0.149
same,glycan array binding signal (z-score),[4],-0.396
same,glycan array binding signal (z-score),[5],-0.208
same,glycan array binding signal (z-score),[6],-0.286
same,glycan array binding signal (z-score),[7],-0.219
same,glycan array binding signal (z-score),[8],-0.503
same,glycan array binding signal (z-score),[9],-0.235
same,glycan array binding signal (z-score),[10],-0.306
same,glycan array binding signal (z-score),[11],-0.309
same,glycan array binding signal (z-score),[12],-0.367
same,glycan array binding signal (z-score),[13],-0.252
same,glycan array binding signal (z-score),[14],-0.124
same,glycan array binding signal (z-score),[15],-0.298
same,glycan array binding signal (z-score),[16],-0.223
same,glycan array binding signal (z-score),[17],-0.265
same,glycan array binding signal (z-score),[18],-0.023
same,glycan array binding signal (z-score),[19],0.085
same,glycan array binding signal (z-score),[20],0.22
same,glycan array binding signal (z-score),[21],-0.551
same,glycan array binding signal (z-score),[22],-0.523
same,glycan array binding signal (z-score),[23],-0.374
same,glycan array binding signal (z-score),[24],-0.188
same,glycan array binding signal (z-score),[25],-0.211
same,glycan array binding signal (z-score),[26],-0.327
same,glycan array binding signal (z-score),[27],-0.11
same,glycan array binding signal (z-score),[28],0.175
same,glycan array binding signal (z-score),[29],-0.179
same,glycan array binding signal (z-score),[30],0.16
same,glycan array binding signal (z-score),[31],0.46
same,glycan array binding signal (z-score),[32],0.131
same,glycan array binding signal (z-score),[33],0.104
same,glycan array binding signal (z-score),[34],-0.158
same,glycan array binding signal (z-score),[35],0.697
same,glycan array binding signal (z-score),[36],-0.373
same,glycan array binding signal (z-score),[37],-0.596
same,glycan array binding signal (z-score),[38],-0.062
